From article PMC12040169 (PLOS Biology, 2025)
The list shows a part of the results.

tested on: T1, C. trachomatis L2/434/Bu expressing GFP (CTL2-GFP); design: species or system HeLa; C. trachomatis total inclusion area by high-content imaging, normalised to DMSO; settings: total inclusion area; 28.5 h, 10 µM; inhibitor
T1 construct: L2/434/Bu GFP intracellular growth in HeLa cells
Outline: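 High-content imaging followed the bulk GFP/resorufin measurement: fixed, Hoechst-stained cells were scored for GFP inclusions and host nuclei per well. Total inclusion area and count served as growth proxies, nuclei number as the viability proxy. MIC calculation matched the bulk assay.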

Row | SMILES | % of control remaining
1 | CN(C)c1ncc(-c2ccccc2)c(C2CCCN2Cc2ccc3ncccc3c2)n1 (stereo not drawn) [CBK286256] | 61.881
2 | CC(=O)Nc1nc(OCC(F)(F)F)cnc1-c1cccc(C(=O)N(C)C)c1 [CBK145401] | 92.3109
3 | O=c1c2c(-c3ccc(F)cc3)csc2ncn1CC1(CO)CCOCC1 [CBK306822] | 69.3894
4 | CCCc1ccc(N(C)C(=O)c2ccc(OCC)cc2)cc1 [CBK161615] | 50.9013
5 | O=C(Nc1ccc2c(c1)CCO2)N1CCCC1c1nc(-c2ccccc2)c2ccccn12 (stereo not drawn) [CBK046733] | 83.0278
6 | CC(C)(N)CNC(=O)c1cc(-c2ccc(Cl)cc2)[nH]n1 [CBK116554] | 103.265
7 | COc1ccc(-c2cc(NC(=S)NC(=O)/C=C/c3ccccc3)[nH]n2)cc1 [CBK007190] | 81.5037
8 | Clc1ccc(CN2CCN(c3nccnc3OCCN3CCOCC3)CC2)cc1 [CBK082887T] | 84.9783
9 | O=C(NCc1cccc(C(F)(F)F)c1)N1CCN(CCc2ccccc2)CC1 [CBK158902] | 85.396
10 | Cc1ccc(Nc2nc(N)nc(CSc3nnc(-c4ccncc4)o3)n2)cc1 [CBK266464] | 113.206
11 | OCC1CCCN1c1nccnc1-c1cccnc1 (stereo not drawn) [CBK089049] | 92.0181
12 | O=C(O)COCC(=O)N1CCN(CCc2ccccc2)CC1 [CBK270298] | 85.8003
13 | Cc1ccccc1OCc1nnc(SCc2nnc(-c3ccccc3)o2)n1C [CBK267406] | 108.885
14 | Cc1ccc2nc(-c3ccncc3)cc(C(=O)N3CCN(C4CCCCC4)CC3)c2c1 [CBK267736] | 120.221
15 | CC(C)(C)OC(=O)NCc1ccc2cccc(OCCO)c2n1 [CBK000585] | 79.3272
16 | Cc1c(C(C)NCC(O)c2ccco2)cnn1-c1ccc(C#N)cc1 (stereo not drawn) [CBK306462] | 68.4066
17 | COc1ccc(CNc2nc(-c3cccnc3)nn2C(=O)c2ccc([N+](=O)[O-])cc2)cc1 [CBK268966] | 117.533
18 | CN(Cc1cnn(C)c1)C(=O)c1ccc(Br)cc1O [CBK305742] | 20.5902
19 | CC(=O)NCc1ccc(C)n1C [CBK046356] | 110.661
20 | Cc1nnnn1-c1cc(NC(=O)NCCCc2nc[nH]n2)ccc1F [CBK304102] | 27.8982
21 | CCOC(=O)N1CCC(NC(=O)CCC(=O)O)CC1 [CBK286569] | 57.3678

Row | SMILES | % of control remaining
22 | CNC(=O)CCc1ccccc1NC(=O)NCCSc1ncn[nH]1 [CBK307253] | 87.1043
23 | CN(Cc1ccccc1)c1nccnc1-c1ccsc1 [CBK037394] | 119.713
24 | Cc1cc(Cl)ccc1CNC(=O)C1(c2ccccc2)CCCC1 [CBK149519] | 104.883
25 | CN(C)C(=O)c1ccc(-c2ncc(OCc3cccs3)nc2N)cc1 [CBK145187] | 100.895
26 | CCCCCn1c(=O)c(C(=O)NCc2ccc(Cl)cc2)c(O)c2ccccc21 [CBK291131] | 100.766
27 | CCOc1c(CNCc2ccccn2)cccc1OC [CBK268104C] | 122.068
28 | Cc1ccc(-c2n[nH]c(=S)n2CC(=O)N2CCC(C(=O)Nc3ccc4c(c3)OCO4)CC2)cc1 [CBK297887] | 87.9553
29 | Cc1ccc(C(=O)NCCc2nnc3ccc(Cl)nn23)cc1 [CBK287636] | 101.635
30 | CC(C)(C)OC(=O)N1CCC(C(Cc2ccc(-c3ccc(S(C)(=O)=O)cc3)cc2)C(=O)NCCOCCO)CC1 (stereo not drawn) [CBK173128] | 95.177
31 | COc1nc2ccn(CCNC(=O)C(C)C)c(=O)c2cc1C#N [CBK307015] | 74.9831
32 | N#Cc1cc(CN2CCCN(S(=O)(=O)c3ccc(C(F)(F)F)cc3Cl)CC2)ccc1F [CBK063100] | 70.8998
33 | O=C(O)CC(CC(=O)N1CCN(Cc2ccc3c(c2)OCO3)CC1)c1ccccc1 (stereo not drawn) [CBK074769] | 90.7498
34 | Cc1nc[nH]c1CN1CCCN(S(=O)(=O)c2ccc(-n3cnc(Cl)c3Cl)cc2)CC1 [CBK063087] | 92.8468
35 | COc1cnc(-c2cnn(C)c2)c(NC(=O)c2ccco2)n1 [CBK145329] | 98.6367
36 | O=[N+]([O-])c1ccc(N2CCN(C/C=C/c3ccccc3[N+](=O)[O-])CC2)cc1 [CBK261895] | 98.7037
37 | CC(=O)N(C)Cc1cccc(Nc2ncnc3c2cnn3CCC#N)c1 [CBK306232] | 29.5638
38 | c1ccc(CSc2nnc3[nH]c4ccccc4n23)cc1 [CBK267841] | 87.4244
39 | CN1CCC(O)(Cn2cnc3cc(-c4ccc(F)cc4)sc3c2=O)CC1 [CBK307434] | 50.7914
40 | O=S(=O)(Nc1ccc(C(O)(C(F)(F)F)C(F)(F)F)cc1)c1ccccc1Br [CBK062101] | 97.6067
41 | CC(=O)c1ccc(-c2nc(-c3ccoc3)cnc2N)cc1 [CBK064058] | 108.592
42 | Cc1nc(CCNCc2c(C)nn(C)c2N(C)C)cs1 [CBK304828] | 66.6076

Row | SMILES | % of control remaining
43 | Cc1nc2cc(C(=O)NC(C)c3ccccn3)ccc2n1C (stereo not drawn) [CBK281822] | 137.016
44 | O=C(c1ccc2[nH]nnc2c1)N1CCc2ccccc21 [CBK200365] | 107.79
45 | C=CCN(C(=S)NCc1ccc2c(c1)OCO2)C1CCCCC1 [CBK200037] | 112.179
46 | CCOC(=O)c1cnc2ccc(F)cc2c1NCc1ccco1 [CBK265834] | 79.0176
47 | O=C1CCCN1CC#CCN1CCN(Cc2ccccc2)CC1 [CBK023770C] | 80.3524
48 | CC1(C)C(=O)NCCN1C(=O)Cn1cnc2ccccc21 [CBK281856] | 102.015
49 | CN1CCN(c2nc(-c3ccc(-c4ccccc4)cc3)cnc2N)CC1 [CBK063421] | 73.6754
50 | NC(=O)c1c(NC(=O)CSc2nnc(-c3ccccc3)n2CC2CCCO2)sc2c1CCC2 (stereo not drawn) [CBK084789] | 90.6617
51 | Cc1cc(NC(=O)C(C)OC(=O)C(NC(=O)OC(C)(C)C)c2ccccc2)no1 (stereo not drawn) [CBK170398] | 20.3788
52 | Cc1cc(N2CCOC(c3nc(C)n[nH]3)C2)c2ccc(F)c(F)c2n1 (stereo not drawn) [CBK306018] | 15.8753
53 | CC(=O)Nc1cccc(NC(=O)N2CCNC(=O)C2)c1 [CBK155863] | 83.5456
54 | COc1ccc(C(NC(=O)N2CCN(C(=O)NCc3ccccc3Cl)CC2)c2ccccc2C)cn1 (stereo not drawn) [CBK081471] | 71.5236
55 | Cc1cc(C)cc(CC(C)Cc2nc3ccccc3[nH]2)c1 (stereo not drawn) [CBK262432] | 89.0227
56 | Cc1ccc(S(=O)(=O)N2CCN(C(=O)C3C4C=CC(C4)C3C(=O)O)CC2)cc1 (stereo not drawn) [CBK286944] | 100.55
57 | Cc1ccc(C2=CCN(CC(N)=O)CC2)o1 [CBK283570] | 85.788
58 | CN(CC(=O)Nc1ccc(N(C)C)cc1)Cc1ccc(F)cc1 [CBK295188] | 114.806
59 | COc1cc(CNc2nccnc2-c2cccc(CO)c2)cc(OC)c1 [CBK037403] | 102.777
60 | O=S(=O)(Nc1cccc2ncccc12)c1ccc(OC(F)(F)F)cc1 [CBK044490] | 78.3823
61 | COCCCNC(=O)C1CCCN(c2nc3c(-c4ccccc4)csc3c(=O)[nH]2)C1 (stereo not drawn) [CBK215498] | 116.665
62 | CN(CCN1CCCCC1)C(=O)c1ccccc1Cn1cccn1 [CBK281904] | 97.7235
63 | O=C(O)CCCC(=O)N1CCN(C(=O)c2sc3cc(Cl)ccc3c2Cl)CC1 [CBK286973] | 100.629

Row | SMILES | % of control remaining
64 | OB(O)c1ccc(Oc2ccc(B(O)O)cc2)cc1 [CBK261159] | 89.38
65 | COCCNc1nccnc1-c1ccccc1F [CBK038044] | 109.45
66 | Cn1ccnc1C1(O)CCN(C(=O)CC2CCCCC2)CC1 [CBK283647] | 88.2985
67 | CC(C)(C)OC(=O)N1CCN(c2ccc(Cl)nn2)CC1 [CBK113381] | 92.983
68 | O=[N+]([O-])c1ccc2nc(Sc3nc4ccccc4[nH]3)sc2c1 [CBK263356] | 104.535
69 | O=C(NCc1nc2ccccc2[nH]1)c1cc(-c2ccc(Cl)cc2)cnc1NCc1ccc2c(c1)OCO2 [CBK106377] | 67.7714
70 | CC1=CC(C)C2(COC(=O)Nc3ccccc3)COC(c3cccnc3)C1C2C (stereo not drawn) [CBK262844] | 69.7626
71 | COC(=O)CCCC(=O)n1ccn(-c2cccc(C(F)(F)F)c2)c1=O [CBK106580] | 121.032
72 | N/C(=N\OC(=O)c1ccccc1CCc1ccccc1)c1cccnc1 [CBK268188] | 59.3112
73 | COc1ccc(-c2cnc3[nH]c(=O)n(CCCN4CCOCC4)c3n2)c(OC)c1OC [CBK064249] | 72.0209
74 | COc1cccc(Oc2nccnc2-c2cccs2)c1 [CBK107059] | 76.8361
75 | CCn1c(SCC(=O)Nc2ccccc2[N+](=O)[O-])nnc1-c1cc(Br)ccc1O [CBK268201] | 102.666
76 | CC(=O)NC(c1nccs1)C1CCCN(C(=O)C2CCCC2)C1 (stereo not drawn) [CBK284966] | 101.606
77 | OCCCCn1c(-c2cccnc2)n[nH]c1=S [CBK288365] | 56.4422
78 | Cc1ccc(-c2ncc(OCCC(C)C)nc2N)cc1C [CBK145145] | 75.1467
79 | CCOC(=O)NC(=S)NC(=O)C(C)(C)C [CBK020037] | 70.4106
80 | COc1cccc(C(=O)N2CCC(NC(=O)c3ccc(C(F)(F)F)cc3)CC2)c1 [CBK155022] | 100.425
81 | CCN1C(=O)COC[C@@H]1[C@H](O)c1ccc(NC(=O)c2ccco2)cc1 [CBK289695] | 104.224
